According to PMC4336329 (PLoS ONE, 2015):
Among all 310,000 compounds or so, about 2,200 (0.71%) showed an effect of 50% or more. The effect is printed as a negative number. Some of the results follow.

What follows are compounds tested against human ether-à-go-go-related gene (hERG) potassium channel (human, UniProt Q12809) (assay: primary screen, population patch clamp on CHO cells stably expressing hERG).
Chain of human ether-à-go-go-related gene (hERG) potassium channel (Q12809 whole entry, looked up): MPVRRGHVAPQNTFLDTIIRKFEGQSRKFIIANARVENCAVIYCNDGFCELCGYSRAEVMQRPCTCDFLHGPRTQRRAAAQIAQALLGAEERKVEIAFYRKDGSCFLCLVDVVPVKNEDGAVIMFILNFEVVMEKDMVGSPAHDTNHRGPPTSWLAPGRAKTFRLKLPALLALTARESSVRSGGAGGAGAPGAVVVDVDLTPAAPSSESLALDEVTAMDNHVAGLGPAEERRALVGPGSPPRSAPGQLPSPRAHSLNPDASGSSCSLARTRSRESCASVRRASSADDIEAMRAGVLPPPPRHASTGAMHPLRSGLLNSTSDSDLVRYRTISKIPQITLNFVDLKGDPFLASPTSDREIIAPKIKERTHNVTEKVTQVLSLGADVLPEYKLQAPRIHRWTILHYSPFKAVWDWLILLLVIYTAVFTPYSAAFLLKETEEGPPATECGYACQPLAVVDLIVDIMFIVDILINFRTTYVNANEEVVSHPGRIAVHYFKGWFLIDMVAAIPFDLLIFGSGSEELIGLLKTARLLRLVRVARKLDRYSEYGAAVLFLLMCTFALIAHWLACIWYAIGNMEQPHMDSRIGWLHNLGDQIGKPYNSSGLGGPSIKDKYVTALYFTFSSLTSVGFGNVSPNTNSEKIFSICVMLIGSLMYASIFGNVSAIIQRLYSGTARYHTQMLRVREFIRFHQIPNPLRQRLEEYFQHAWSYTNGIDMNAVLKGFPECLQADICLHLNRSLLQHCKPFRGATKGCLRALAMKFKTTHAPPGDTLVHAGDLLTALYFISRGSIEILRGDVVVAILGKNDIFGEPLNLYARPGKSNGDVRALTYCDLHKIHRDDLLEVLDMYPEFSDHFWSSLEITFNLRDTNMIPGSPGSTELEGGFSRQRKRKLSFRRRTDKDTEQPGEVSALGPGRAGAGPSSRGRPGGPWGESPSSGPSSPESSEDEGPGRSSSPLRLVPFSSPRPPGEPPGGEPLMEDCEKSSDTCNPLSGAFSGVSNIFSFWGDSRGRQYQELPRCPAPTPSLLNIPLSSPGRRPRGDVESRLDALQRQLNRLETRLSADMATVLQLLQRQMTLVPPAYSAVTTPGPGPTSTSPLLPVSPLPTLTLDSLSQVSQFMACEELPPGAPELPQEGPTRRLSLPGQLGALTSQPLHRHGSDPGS

| Compound | hERG current change (%, negative = inhibition) at 1uM |
| --- | --- |
| CCOC(=O)c1cnn(CCOC(=O)Cc2cccs2)c1NC(=O)Cc1cccs1 | -1.4% |
| O=C(O)C/C(=C\c1ccc2c(c1)OCO2)c1nc2ccccc2s1 | 1.16% |
| CC1Cc2cc(/C=C3/SC(=S)N(C)C3=O)ccc2O1 (stereo not drawn) | 11.7% |
| COC(=O)C1=C(c2ccccc2OCc2ccccc2)C[C@@H]2CC[C@H]1N2C(=O)NCc1ccc(Br)cc1 | 11.8% |
| O=C(CCCn1c(=O)[nH]c2cc(Cl)ccc2c1=O)NC1CCCCCCC1 | 4.63% |
| COc1ccc2oc(C(=O)OC/C(O)=C(\C#N)c3nc4ccccc4[nH]3)c(C)c2c1 | 7.65% |
| COC(=O)C1=C(c2ccc(-c3ccccc3)c(F)c2)C[C@@H]2CC[C@H]1N2C(=O)NCCOc1ccc(OC)cc1 | 11.2% |
| Cc1c(S(=O)(=O)N2CC(C)CC(C)C2)c(=O)n(C)c(=O)n1C (stereo not drawn) | 1.33% |
| C/C(N)=C(/C#N)C(=O)COC(=O)c1ccccc1Oc1ccccc1 | 14.1% |
| Cc1cccc(N2CCN(Cc3nc(-c4cccc(Oc5ccccc5)c4)oc3C)CC2)n1 | 9.83% |
| N#C/C(=N/Nc1ccc(S(=O)(=O)N2CCOCC2)cc1)C(N)=O | 4.44% |
| COc1ccc(N2C(=O)C3ON(C4SC(=S)N(C)C4(C)C)C(c4ccc([N+](=O)[O-])cc4)C3C2=O)cc1 (stereo not drawn) | 15.7% |
| Cc1ccc(/C=N/n2c(-c3cccnc3)n[nH]c2=S)s1 | 11.6% |
| CCCCN1C(=O)C(=O)N(CC(=O)c2cc(C)n(C3CC3)c2C)C1=O | -3.84% |
| Cc1nc2ccc(F)cc2cc1C(=O)Nc1cccc(Cl)c1C | 13.2% |
| CCCn1c(=O)c(C(=O)NCc2ccccc2OC)c(O)c2ccccc21 | 17.4% |
| CN(/N=C/c1ccc(Br)o1)C1=NS(=O)(=O)c2ccccc21 | 11.1% |
| O=c1c2ccccc2c(/C=N/c2ncn[nH]2)c(O)n1Cc1ccccc1 | 20% |
| Cc1ccccc1-n1nnnc1-c1ccccc1 | 6.66% |
| CC(C)Oc1ccc(NC(N)=O)cc1 | 3.01% |
| CCC(=O)N(C)/C=C1\Sc2ccccc2C1=O | 2.8% |
| O=C(C1CC1)N1N=C2CCCCC2C1(O)C(F)(F)F (stereo not drawn) | 24.6% |
| COc1ccc(N2CC(O)=C(c3nc(-c4ccc(F)cc4)cs3)C2=N)cc1Cl | 0.998% |
| O=c1[nH]oc2cc(Cl)ccc12 | 8.58% |
